# About 540 (0.36%) of roughly 150,000 compounds showed an effect of 50% or more. The list shows a part of the results.
# Tested on: Plasmodium falciparum
# Assay: Primary screen in NF54 nanoGlo assay, in single point, at 2uM, 72h; a lower Z score goes with more inhibition
# Type: functional, Erythrocyte
# Details: timepoint 72 hour
SMILES,% Inhibition [%],Z score
COc1ccccc1C1(CNC(=O)c2cc(C(=O)O)co2)CCC1,28,-3.14
CCOC(=O)c1cnc2c(c(C)nn2C)c1N1CCCN(c2nc(C)ns2)CC1,1,-0.09
CC(C)OCCCNc1cc(C(F)(F)F)cnn1,-1,0.06
O=C(Cc1cccc2ccccc12)N1C[C@@H](CN2CCCCCC2)[C@@H](CO)C1,-9,1.32
Cn1ccnc1[C@@H](NC(=O)c1[nH]ccc1C1CC1)C(C)(C)CO,-7,0.88
CC1c2ccccc2CN1C(=O)NC1CC(=O)N(C(C)(C)C)C1 (stereo unspecified),-3,0.54
CCc1nn(-c2ccc(OC)cc2)c(Oc2ccc(F)cc2F)c1CN(CCOC)C(=O)C1CCC1,2,-0.26
CCc1noc(CC)c1CNC(=O)N[C@H](c1ccccn1)C(C)C,-10,0.98
O=C(N1CCC[C@@]2(CCNC2)C1)C1(c2ccccc2)CCCC1,1,-0.13
CCOC(=O)c1cc(-c2ccc(C(=O)N[C@H]3CCOC3)cc2)c(C)[nH]1,6,-1.26
CCCn1nnnc1CN1CCOC[C@H]1c1ccc(CC)o1,-4,0.54
Cc1cc(CN2CCC(C(=O)Nc3ccccc3)CC2)nc(N(C)C)n1,0,0.05
COc1ccc(C2N[C@H](C(=O)O)Cc3c2[nH]c2ccccc32)cc1 (stereo partly specified),-14,2.25
O=C(CCn1cnc2ccccc2c1=O)N(CC(F)F)c1ccc(F)cc1,-7,1.08
O=C1CC[C@]2(C(=O)NCc3ccncc3)CCC=C2N1C1CCCC1,-14,1.34
CCN(CC)C(=O)c1cc(C[C@H](C)c2ccccc2)no1,-4,0.6
CCCOC(=O)[C@H]1CC(=O)N(c2cn[nH]c2)C1,30,-3.44
O=C1NCCN1CCS(=O)(=O)Cc1ccn(-c2ccccc2)n1,-7,1.45
Cc1nccc(C(=O)N(c2nc3ccccc3o2)C2CC2)n1,-2,0.32
Cc1ccccc1N1C(=O)CN(S(=O)(=O)c2ccccc2)C[C@@]1(C)C(=O)NC1CCCC1,6,-1.1
COC[C@H](CC(C)C)OC(=O)c1ccn(C(C)C)n1,6,-1.05
Cc1ccc(N2CCCC2)c(C(=O)N2CCc3cnccc32)c1,0,-0.04
Cc1nn(Cc2ccc(F)cc2)c2[nH]nc(NC(=O)[C@H]3CCOC3)c12,-3,0.4
CO[C@@H]1COC[C@H]1n1cc(CNC(=O)N2CC(C)OCC2C)nn1 (stereo partly specified),-5,0.97
Cc1noc(C2CCC(N[C@@H](C)c3csnn3)CC2)n1 (stereo partly specified),-1,0.27
O=S(=O)(C1CC1)N1CCC[C@H]1Cn1cc(C2CC2)nn1,-9,1.7
CC(C)n1nccc1NC(=O)CCc1ccsc1,-12,2.29

SMILES,% Inhibition [%],Z score
C[C@H]1CCCCN1CCNC(=O)c1c2c(nc3ccccc13)C(=O)N(C1CCCCC1)C2,-9,1.03
COCCn1cnnc1CNC(=O)c1cccc(-c2cn[nH]c2C2CC2)c1,2,-0.28
O=C(NCc1ccnc(-c2cccs2)c1)[C@H]1CCOC1,10,-1.53
CCN(Cc1nnc(C)o1)c1ccc(F)cc1,-9,1.05
O=c1c2cnccc2ncn1Cc1c(F)cccc1F,0,-0.05
CCNC(=O)N1CC[C@H](NS(=O)(=O)c2cccnc2C#N)C1,4,-0.52
CCc1ccc(C2=C[C@@H](c3cccc(OC)c3)n3ncc(C(=O)Nc4ccc(C)cc4)c3N2)cc1,60,-5.98
Cc1ccc(NC(=O)CN2C(=O)NC3(CCS(=O)(=O)CC3)C2=O)cc1C,-5,0.91
CC(C)NC(=O)N(CCN1CCOCC1)CC(=O)N1N=C(c2ccc(F)cc2)C[C@H]1c1ccccc1F,-6,0.88
O=C(CN1C(=O)[C@@H]2CCCCN2C(=O)c2ccccc21)NCC1CCCCC1,-9,1.36
COc1cc(CNS(=O)(=O)c2cc3c(cc2Br)NC(=O)CC3)ccn1,-7,1.41
Cc1cccc2c(N3CCN(Cc4cccnc4)CC3)c(C#N)cnc12,-9,1.2
CC(C)(C)c1cc2c(N3CCC[C@@](O)(C(N)=O)C3)nccn2n1,5,-0.64
Cc1cnc(-n2ncc(C(=O)N3CCCC3)c2C)nc1-c1cccs1,-12,1.56
O=C(NC1CCCCCC1)C1CCN(S(=O)(=O)N2CCCCC2)CC1,1,-0.23
Cc1cc(Cl)ccc1OCC(=O)NCCOc1nc(N(C)C)nc(N2CCOCC2)n1,4,-0.72
CC(C)[C@H]1CN(CC(=O)N2CCOCC2)C[C@@H]1Nc1ncccc1C#N,1,-0.21
COc1ccc(N2CCN(CN3C(=O)c4cc(Cl)c(Cl)cc4C3=O)CC2)cc1,-7,1.45
CO[C@@]1(C)CCCN(C(=O)NCC2(CF)CCOCC2)CC1,1,-0.12
O=C1CCc2cc(F)cc(NC(=O)NCc3n[nH]c4c3CCC4)c2N1,-8,1.03
O=C(NC[C@H]1OC[C@@H](NCc2ccccn2)[C@@H]1O)C1CCCC1,12,-1.41
Cc1nccn1[C@H]1[C@@H]2OC[C@@H](O2)[C@@H](NCc2ccccc2)[C@@H]1O,-7,0.91
CC1(C)NC(=O)N(Cc2cccc3ccccc23)C1=O,-6,0.55
CN(C(=O)c1cccn1C)C1CCCCC1,0,-0.04
O=C(NC[C@H]1CN(c2ccccc2)C(=O)O1)c1ccc(S(=O)(=O)N2CCOCC2)cc1,-8,0.94
CNc1nc(-c2c(C)nn(C)c2C)cc(C(C)(C)C)n1,-8,1.35

# Source: ChEMBL document CHEMBL4888484, “Replenishing the malaria drug discovery pipeline: Screening and hit evaluation of the MMV Hit Generation Library 1 (HGL1) against asexual blood stage Plasmodium falciparum ,using a nano luciferase reporter read-out” (2022)
